Measured values published in a collection of fitness landscapes (doi:10.1126/science.1257360).
The list shows a part of the results.

B1: PhoQ; a variant is named by its letters at X, in order, P23837 (parent)
chain: MKKLLRLFFPLSLRVRFLLATAAVVLVLSLAYGMVALIGYSVSFDKTTFRLLRGESNLFYTLAKWENNKLHVELPENIDKQSPTMTLIYDENGQLLWAQRDVPWLMKMIQPDWLKSNGFHEIEADVNDTSLLLSGDHSIQQQLQEVREDDDDAEMTHSVAVNVYPATSRMPKLTIVVVDTIPVELKSSYMVWSWFIYVLSANLLLVIPLLWVAAWWSLRPIEALAKEVRELEEHNRELLNPATTRELTSLVRNLNRLLKSERERYDKYRTTLTDLTHSLKTPLXXLQXXLRSLRSEKMSVSDAEPVMLEQISRISQQIGYYLHRASMRGGTLLSRELHPVAPLLDNLTSALNKVYQRKGVNISLDISPEISFVGEQNDFVEVMGNVLDNACKYCLEFVEISARQTDEHLYIVVEDDGPGIPLSKREVIFDRGQRVDTLRPGQGVGLAVAREITEQYEGKIVAGESMLGGARMEVIFGRQHSAPKDE

Variants of: B1
Assay: enrichment ratio after two sorts for PhoP signalling (ratio (wild type AVST 3.29)); higher = more functional
Settings: with PhoP (E. coli)

| Variant | enrichment ratio |
| --- | --- |
| EIGI | ≤ 0.25 |
| VFPP | ≤ 0.25 |
| QYME | ≤ 0.25 |
| IWAV | ≤ 0.25 |
| MNRG | ≤ 0.25 |
| DVGD | ≤ 0.25 |
| PTSA | ≤ 0.25 |
| PFIA | ≤ 0.25 |
| LLPI | ≤ 0.25 |
| FAEQ | ≤ 0.25 |
| AVQR | ≤ 0.25 |
| MLMD | ≤ 0.25 |
| PRFR | ≤ 0.25 |
| KNKV | ≤ 0.25 |
| PFHV | ≤ 0.25 |
| FWFK | ≤ 0.25 |
| MSGF | 2.34 |
| WALA | ≤ 0.25 |
| TWAY | 0.77 |
| KDMR | ≤ 0.25 |
| WPWS | ≤ 0.25 |
| QPQR | ≤ 0.25 |
| KSFE | ≤ 0.25 |
| FPYC | ≤ 0.25 |

| Variant | enrichment ratio |
| --- | --- |
| AYKF | ≤ 0.25 |
| MCAY | 4.41 |
| RVTC | ≤ 0.25 |
| EMRH | ≤ 0.25 |
| LCFT | ≤ 0.25 |
| TAVL | 0.363 |
| PVFL | ≤ 0.25 |
| DAGW | ≤ 0.25 |
| AKYD | ≤ 0.25 |
| SAPQ | ≤ 0.25 |
| YKMG | ≤ 0.25 |
| DLDD | ≤ 0.25 |
| YSSN | ≤ 0.25 |
| DYTV | ≤ 0.25 |
| TSNF | 16.1 |
| NMID | ≤ 0.25 |
| QRWV | ≤ 0.25 |
| TNYN | ≤ 0.25 |
| LPRR | ≤ 0.25 |
| ERQI | ≤ 0.25 |
| SLIQ | ≤ 0.25 |
| GMTN | ≤ 0.25 |
| CIIR | ≤ 0.25 |
| IPPC | ≤ 0.25 |

| Variant | enrichment ratio |
| --- | --- |
| NIHM | ≤ 0.25 |
| LGCL | 0.413 |
| QEIT | ≤ 0.25 |
| RQMH | ≤ 0.25 |
| NPDH | ≤ 0.25 |
| PYPL | ≤ 0.25 |
| MFNC | ≤ 0.25 |
| TFAE | ≤ 0.25 |
| MLEP | ≤ 0.25 |
| MAQF | ≤ 0.25 |
| IYTC | ≤ 0.25 |
| YLEY | ≤ 0.25 |
| GWLC | ≤ 0.25 |
| QLKG | ≤ 0.25 |
| RGHW | ≤ 0.25 |
| FIKP | ≤ 0.25 |
| HMCT | ≤ 0.25 |
| FALR | ≤ 0.25 |
| YGFE | ≤ 0.25 |
| MEGP | ≤ 0.25 |
| WYND | ≤ 0.25 |
| QPDV | ≤ 0.25 |
| FWPT | ≤ 0.25 |
| TVNS | 18.9 |

| Variant | enrichment ratio |
| --- | --- |
| ATHL | ≤ 0.25 |
| AILR | 8.68 |
| PIKD | ≤ 0.25 |
| RHSN | 0.686 |
| KSMC | ≤ 0.25 |
| INDE | ≤ 0.25 |
| SGIY | 3.04 |
| WKYT | ≤ 0.25 |
| NLQR | ≤ 0.25 |
| SCPN | ≤ 0.25 |
| HHDF | ≤ 0.25 |
| LSPW | ≤ 0.25 |
| LDPE | ≤ 0.25 |
| QVNE | ≤ 0.25 |
| DFPH | ≤ 0.25 |
| QFFF | ≤ 0.25 |
| EEFA | ≤ 0.25 |
| EYAM | ≤ 0.25 |
| IQFF | ≤ 0.25 |
| LMFC | ≤ 0.25 |
| RPAQ | ≤ 0.25 |
| GHAG | ≤ 0.25 |
| IWYA | ≤ 0.25 |
| NCLC | ≤ 0.25 |

| Variant | enrichment ratio |
| --- | --- |
| RGFT | ≤ 0.25 |
| ITPD | ≤ 0.25 |
| IAYY | ≤ 0.25 |
| LNCW | ≤ 0.25 |
| LYYH | ≤ 0.25 |
| KIAN | ≤ 0.25 |
| SLVC | ≤ 0.25 |
| RSIA | ≤ 0.25 |
| LMCF | ≤ 0.25 |
| PTNQ | ≤ 0.25 |
| MEVA | 5.89 |
| RYEC | ≤ 0.25 |
| QLQD | ≤ 0.25 |
| KAMS | ≤ 0.25 |
| AERN | ≤ 0.25 |
| SYSS | 0.822 |
| LLRG | ≤ 0.25 |
| TEGH | 18.1 |
| NLHT | ≤ 0.25 |
| TWGF | ≤ 0.25 |
| TLDK | 0.477 |
| EAQD | ≤ 0.25 |
| PFYG | ≤ 0.25 |
| KRLC | ≤ 0.25 |

| Variant | enrichment ratio |
| --- | --- |
| YQTT | ≤ 0.25 |
| TVNQ | 2.1 |
| LMMM | ≤ 0.25 |
| YYHM | ≤ 0.25 |
| NAVQ | ≤ 0.25 |
| PWES | ≤ 0.25 |
| WNAH | ≤ 0.25 |
| YKQM | ≤ 0.25 |
| IDWL | ≤ 0.25 |
| RKPN | ≤ 0.25 |
| AEFC | 6.7 |
| LPFY | ≤ 0.25 |
| QMRI | ≤ 0.25 |
| QEEC | ≤ 0.25 |
| DNWT | ≤ 0.25 |
| ELRY | ≤ 0.25 |
| LMVD | ≤ 0.25 |
| MEVS | 1.37 |
| RKHR | ≤ 0.25 |
| GPVC | ≤ 0.25 |
| HLRY | ≤ 0.25 |
| RGRS | ≤ 0.25 |
| GCMF | 3.35 |
| QWYF | ≤ 0.25 |

| Variant | enrichment ratio |
| --- | --- |
| HFSL | ≤ 0.25 |
| LYIQ | ≤ 0.25 |
| LIAF | ≤ 0.25 |
| NNQG | ≤ 0.25 |
| PFFY | ≤ 0.25 |
| GIVS | 7.04 |
| PLFV | ≤ 0.25 |
| AMWY | ≤ 0.25 |
| QTFP | ≤ 0.25 |
| LITS | ≤ 0.25 |
| AGCG | ≤ 0.25 |
| KLLH | ≤ 0.25 |
| NHNT | ≤ 0.25 |
| NYDA | ≤ 0.25 |
| LLPT | ≤ 0.25 |
| SMLL | 11.2 |
| TIAG | 21.3 |
| VGIH | ≤ 0.25 |
| IMVW | ≤ 0.25 |
| GCCL | 4.47 |
| DWNG | ≤ 0.25 |
| SKCT | 14.2 |
| WNGY | ≤ 0.25 |
| TNRA | ≤ 0.25 |

| Variant | enrichment ratio |
| --- | --- |
| TDQH | ≤ 0.25 |
| DCCD | ≤ 0.25 |
| CSFE | ≤ 0.25 |
| RSSF | ≤ 0.25 |
| WRLK | ≤ 0.25 |
| KPFY | ≤ 0.25 |
| HYHA | ≤ 0.25 |
| QKMS | ≤ 0.25 |
| EPAQ | ≤ 0.25 |
| KFES | ≤ 0.25 |
| SNCS | 19.6 |
| TIRP | ≤ 0.25 |
| MIDR | ≤ 0.25 |
| ITKN | ≤ 0.25 |
| FNYN | ≤ 0.25 |
| ATHS | ≤ 0.25 |
| YDHC | ≤ 0.25 |
| MHAR | ≤ 0.25 |
| VPNP | ≤ 0.25 |
| PRMV | 1.94 |
| IDSA | ≤ 0.25 |
| IHPS | ≤ 0.25 |
| AQHM | ≤ 0.25 |
| TDAR | ≤ 0.25 |

| Variant | enrichment ratio |
| --- | --- |
| FDWI | ≤ 0.25 |
| FTNN | ≤ 0.25 |
| NKSF | ≤ 0.25 |
| FWAL | 0.585 |
| KTFA | 1.05 |
| DENT | ≤ 0.25 |
| GIDW | ≤ 0.25 |
| KFSV | ≤ 0.25 |
| NNFR | ≤ 0.25 |
| PMFM | 0.25 |
| PKGM | ≤ 0.25 |
| TCVG | ≤ 0.25 |
| VYWR | ≤ 0.25 |
| LVRQ | ≤ 0.25 |
| GHYA | ≤ 0.25 |
| GYYK | ≤ 0.25 |
| VSLY | 1.03 |
| FTAA | ≤ 0.25 |
| QDIA | ≤ 0.25 |
| NPRD | ≤ 0.25 |
| VDRI | ≤ 0.25 |
| WFGG | ≤ 0.25 |
| TMRV | ≤ 0.25 |
| KFYT | ≤ 0.25 |

| Variant | enrichment ratio |
| --- | --- |
| WMYC | ≤ 0.25 |
| IEYK | ≤ 0.25 |
| MEDI | ≤ 0.25 |
| CKLD | ≤ 0.25 |
| YGFN | ≤ 0.25 |
| QHAK | ≤ 0.25 |
| HAKS | ≤ 0.25 |
| PAPY | ≤ 0.25 |
| RSAH | ≤ 0.25 |
| SHVM | 6.53 |
| MSRR | ≤ 0.25 |
| NFLG | ≤ 0.25 |
| FPST | ≤ 0.25 |
| IDEN | ≤ 0.25 |
| TMVM | ≤ 0.25 |
| LHFP | ≤ 0.25 |
| GRMQ | ≤ 0.25 |
| YELP | ≤ 0.25 |
| MGWD | ≤ 0.25 |
| QFAL | ≤ 0.25 |
| QFDN | ≤ 0.25 |
| SSPC | ≤ 0.25 |
| RHHG | ≤ 0.25 |
| PCRY | ≤ 0.25 |

| Variant | enrichment ratio |
| --- | --- |
| RIDF | ≤ 0.25 |
| LLWY | ≤ 0.25 |
| PLYQ | ≤ 0.25 |
| TRWG | ≤ 0.25 |
| LWAD | ≤ 0.25 |
| SRWS | ≤ 0.25 |
| IYFE | ≤ 0.25 |
| DASV | ≤ 0.25 |
| MDEA | ≤ 0.25 |
| IKMY | ≤ 0.25 |
| PRVM | ≤ 0.25 |
| SISY | 9.74 |
| KNAC | ≤ 0.25 |
| MHFL | ≤ 0.25 |
| MAVF | ≤ 0.25 |
| CILT | ≤ 0.25 |
| WHCF | ≤ 0.25 |
| IDDA | ≤ 0.25 |
| SNGL | 6.07 |
| FFDH | ≤ 0.25 |
| LYCE | ≤ 0.25 |
| SSGG | ≤ 0.25 |
| GPDI | ≤ 0.25 |
| HNKR | ≤ 0.25 |

| Variant | enrichment ratio |
| --- | --- |
| WWLF | ≤ 0.25 |
| ASTG | 14.7 |
| GHYT | ≤ 0.25 |
| QFNN | ≤ 0.25 |
| WSGG | ≤ 0.25 |
| HQFF | ≤ 0.25 |
| MMWH | 1.55 |
| MCQI | ≤ 0.25 |
| RAVC | ≤ 0.25 |
| VMEF | ≤ 0.25 |
| RLYA | ≤ 0.25 |
| GCGM | 2.98 |
| VRAT | ≤ 0.25 |
| MDVR | ≤ 0.25 |
| RFKI | ≤ 0.25 |
| DIFM | ≤ 0.25 |
| GKSN | ≤ 0.25 |
| TIPP | ≤ 0.25 |
| AYSS | ≤ 0.25 |
| GCSN | 3.22 |
| NMAT | ≤ 0.25 |
| DTVN | ≤ 0.25 |
| TDSG | 3.25 |
| PDVD | ≤ 0.25 |

| Variant | enrichment ratio |
| --- | --- |
| RDDV | ≤ 0.25 |
| SDMR | ≤ 0.25 |
| NRLN | ≤ 0.25 |
| DIQA | ≤ 0.25 |
| QMRG | ≤ 0.25 |
| QPRL | ≤ 0.25 |
| DVQR | ≤ 0.25 |
| FLES | ≤ 0.25 |
| FKNK | ≤ 0.25 |
| SGGI | 11.1 |
| FQAK | ≤ 0.25 |
| ITYI | ≤ 0.25 |
| EVLA | ≤ 0.25 |
| QGAM | 13 |
| FNNW | ≤ 0.25 |
| VDCH | 2.16 |
| SQVR | ≤ 0.25 |
| FFDP | ≤ 0.25 |
